Experimental data from the BET-seq Pho4 binding data (Le et al. 2018).
Some of the results follow. These are noisy estimates, calculated here from bound and input reads.

Biological target: T1, Pho4 (S. cerevisiae) (UniProt P07270)
T1 sequence: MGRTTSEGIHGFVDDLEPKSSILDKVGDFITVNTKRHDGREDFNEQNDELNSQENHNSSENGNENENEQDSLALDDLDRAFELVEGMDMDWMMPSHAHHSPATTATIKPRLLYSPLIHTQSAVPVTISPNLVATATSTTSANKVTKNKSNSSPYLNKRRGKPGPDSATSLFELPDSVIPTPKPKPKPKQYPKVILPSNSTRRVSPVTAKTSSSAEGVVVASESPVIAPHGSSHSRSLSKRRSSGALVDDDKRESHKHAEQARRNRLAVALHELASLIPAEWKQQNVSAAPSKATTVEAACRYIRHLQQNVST
Assay: relative binding free energy (BET-seq); higher = weaker binding
Conditions: reference: library average

Row | Sequence | relative binding free energy [kcal/mol]
1 | TAATGCACGTGAGGGT | 0.17
2 | ATTATCACGTGTATAA | 0.15
3 | CTAGTCACGTGTGGCT | 0.09
4 | AGGGCCACGTGACGGT | 0.02
5 | ATTATCACGTGTGCTG | 0.24
6 | TTAATCACGTGGTCGA | -0.01
7 | GGGAGCACGTGTGCTT | -0.02
8 | GAAGGCACGTGTGTCT | -0.05
9 | GGGGTCACGTGGGAAC | 0.14
10 | AAGTACACGTGTGGCT | 0.17
11 | TGCTGCACGTGCGGGG | -0.07
12 | TAGGACACGTGGTGCG | -0.21
13 | GGAGACACGTGTGGTC | 0.08
14 | TGAGGCACGTGCAGGT | -0.13
15 | GTGGTCACGTGTTCAC | 0.21
16 | TGGCTCACGTGGTAGG | 0.22
17 | ATGGGCACGTGATGTG | 0.09
18 | AGTCGCACGTGTTGTG | 0.01
19 | AGTTTCACGTGCCGTG | 0.28
20 | TTCTTCACGTGTTGGG | 0.33
21 | GCTATCACGTGGTTAG | 0.21
22 | AGCTACACGTGGGGCG | -0.01
23 | GTGGGCACGTGTCTAT | -0.08

Row | Sequence | relative binding free energy [kcal/mol]
24 | AGGAGCACGTGTTTCG | -0.08
25 | GTGAACACGTGAGTAG | 0.37
26 | TCTTGCACGTGGGCGT | -0.07
27 | TATATCACGTGGGGAA | 0.07
28 | GTTGACACGTGAGGTG | 0.23
29 | TGGGTCACGTGTGAAA | 0.1
30 | GATGTCACGTGGAGCG | 0.27
31 | GCGTTCACGTGCGTTT | 0.38
32 | TGCAGCACGTGGAGCG | -0.13
33 | CTTTACACGTGTATTT | 0.23
34 | GGTTTCACGTGGAAGG | 0.39
35 | TTGTACACGTGGTAGT | 0.02
36 | AGTTCCACGTGTCAGG | 0.18
37 | GGGTTCACGTGTCTGC | 0.24
38 | GGTATCACGTGGGAGA | 0.12
39 | AGGGACACGTGGCCTG | -0.12
40 | TCGGGCACGTGAGAGT | 0.19
41 | CTGGTCACGTGAGAGG | 0.32
42 | TTTGTCACGTGGGAAC | -0.08
43 | CGCTTCACGTGTTTGT | 0.19
44 | ATACGCACGTGTTTGG | -0.19
45 | TTAGGCACGTGAGAAA | 0.19
46 | TCGGACACGTGCGGTT | 0.03

Row | Sequence | relative binding free energy [kcal/mol]
47 | TTAGGCACGTGTAACG | -0.1
48 | TATAGCACGTGTTGCA | 0
49 | TAGATCACGTGTTAGT | 0.13
50 | AGTAACACGTGTTGAG | 0.13
51 | ATACGCACGTGGTATG | -0.15
52 | CTAGGCACGTGATATG | -0.07
53 | ATATGCACGTGTACTG | 0.01
54 | CAAGGCACGTGGTGGA | -0.27
55 | TAATTCACGTGGGGAC | 0.09
56 | CTGGTCACGTGGCTGG | -0.1
57 | ATCGGCACGTGGGTCA | -0.2
58 | ATTTACACGTGGGTGT | -0.07
59 | GAATGCACGTGAGTTG | 0.18
60 | TACTGCACGTGGTCGG | -0.13
61 | GCATGCACGTGTGTTG | -0.06
62 | TGGAGCACGTGCAGTA | -0.13
63 | GTTAGCACGTGTGGCA | 0.06
64 | TAAAGCACGTGGGTGG | -0.13
65 | AAAGGCACGTGATTGA | 0.05
66 | TAAATCACGTGTGAGG | 0.02
67 | TTTATCACGTGCGGAG | 0.22
68 | GGGACCACGTGTTTTG | -0.05
69 | AGGTTCACGTGGCGCG | 0.17

Row | Sequence | relative binding free energy [kcal/mol]
70 | ACTAACACGTGGGGGA | 0.06
71 | ATATGCACGTGGGGTT | -0.26
72 | TTCTGCACGTGGGGGC | -0.18
73 | ATGTTCACGTGTGAGA | 0.36
74 | TTGTGCACGTGTCTAG | -0.12
75 | AGTCGCACGTGGGTGT | -0.16
76 | GGGAGCACGTGGATGC | -0.06
77 | CGGGGCACGTGCAGGG | -0.1
78 | TAGTGCACGTGATTGC | 0
79 | GGGAACACGTGTTGGG | 0.11
80 | GTTAGCACGTGGGCTA | -0.13
81 | CATTGCACGTGTGTGC | -0.03
82 | TTTAGCACGTGTAGGA | -0.09
83 | GGTGGCACGTGCGGCA | -0.2
84 | TGTTACACGTGATGTC | 0.27
85 | CGTGGCACGTGTGGCA | -0.17
86 | GAGGACACGTGTGCGG | 0.12
87 | GGGGGCACGTGCGAGC | -0.2
88 | TCTATCACGTGGAGTG | 0.2
89 | TTAAGCACGTGAATCG | 0.29
90 | ACTAGCACGTGGTAGT | -0.24
91 | ATTTACACGTGCGTTG | -0.04
92 | GGTTTCACGTGGGACG | 0.3

Row | Sequence | relative binding free energy [kcal/mol]
93 | ATAAGCACGTGTTGTT | -0.11
94 | GGAGTCACGTGTGTAA | 0.1
95 | GGGCTCACGTGTGAGT | 0.4
96 | CGGGTCACGTGGTGCA | -0.04
97 | GAGGGCACGTGGGGAA | 0.01
98 | TGAATCACGTGTCATG | 0.08
99 | GTAATCACGTGAAGTA | 0.46
100 | GTTACCACGTGAGGGG | 0.17
101 | TTAGCCACGTGAGTTA | 0.25
102 | AGGAGCACGTGTAAGT | 0.03
103 | GGTCACACGTGAGGCT | 0.2
104 | TACGGCACGTGATCGG | 0.05
105 | TATCGCACGTGTAGTT | 0.1
106 | GGAATCACGTGTGATT | 0.17
107 | ACTATCACGTGTAGGA | 0.25
108 | AGTTACACGTGGAGGT | 0.14
109 | TCTTACACGTGGCGGT | 0.12
110 | ATTTTCACGTGCGAGG | 0.18
111 | TGTGACACGTGTTACG | 0.08
112 | TGATACACGTGAGCGT | 0.17
113 | TCGTTCACGTGCAGGT | 0.18
114 | CGAGTCACGTGTTGAT | 0.14
115 | GGTAACACGTGATGGT | 0.18
